{"source": "paper PMC4336329", "about": "(PLoS ONE, 2015)", "note": "About 2,200 (0.71%) of roughly 310,000 compounds showed an effect of 50% or more. The effect is printed as a negative number. This is one part of the list.", "data": [{"target": "human ether-à-go-go-related gene (hERG) potassium channel (human, UniProt Q12809)", "sequence (Q12809 whole entry, looked up)": "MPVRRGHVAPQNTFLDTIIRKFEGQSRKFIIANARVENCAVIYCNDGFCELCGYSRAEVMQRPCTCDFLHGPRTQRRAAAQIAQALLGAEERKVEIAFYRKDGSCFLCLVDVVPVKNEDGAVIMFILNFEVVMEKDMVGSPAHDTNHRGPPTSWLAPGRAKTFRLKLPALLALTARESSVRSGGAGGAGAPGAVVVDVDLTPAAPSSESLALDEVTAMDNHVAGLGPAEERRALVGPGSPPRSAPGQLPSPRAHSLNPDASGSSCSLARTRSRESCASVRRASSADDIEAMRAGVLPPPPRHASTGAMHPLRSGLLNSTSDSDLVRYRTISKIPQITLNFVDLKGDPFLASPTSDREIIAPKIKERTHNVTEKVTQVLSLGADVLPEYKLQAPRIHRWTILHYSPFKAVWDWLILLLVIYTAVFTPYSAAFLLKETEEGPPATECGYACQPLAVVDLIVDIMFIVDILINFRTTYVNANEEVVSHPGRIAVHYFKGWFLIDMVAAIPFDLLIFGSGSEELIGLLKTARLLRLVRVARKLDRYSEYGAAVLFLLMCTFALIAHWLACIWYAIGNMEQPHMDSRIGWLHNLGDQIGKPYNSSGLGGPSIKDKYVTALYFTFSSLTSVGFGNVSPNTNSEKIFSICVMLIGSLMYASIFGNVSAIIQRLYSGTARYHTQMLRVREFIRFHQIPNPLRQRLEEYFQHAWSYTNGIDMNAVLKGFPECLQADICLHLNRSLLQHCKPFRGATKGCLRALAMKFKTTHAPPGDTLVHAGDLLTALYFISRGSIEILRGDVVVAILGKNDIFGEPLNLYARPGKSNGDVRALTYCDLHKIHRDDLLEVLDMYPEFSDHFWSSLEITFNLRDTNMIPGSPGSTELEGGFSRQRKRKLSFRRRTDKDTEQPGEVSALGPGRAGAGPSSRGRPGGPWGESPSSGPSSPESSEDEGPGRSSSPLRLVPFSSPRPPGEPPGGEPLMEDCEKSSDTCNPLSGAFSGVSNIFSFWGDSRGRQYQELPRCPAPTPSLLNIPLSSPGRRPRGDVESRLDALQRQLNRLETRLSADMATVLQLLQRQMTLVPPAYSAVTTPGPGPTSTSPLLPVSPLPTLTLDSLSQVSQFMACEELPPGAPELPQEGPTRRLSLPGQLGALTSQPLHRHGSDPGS", "assay": "primary screen, population patch clamp on CHO cells stably expressing hERG", "units": {"hERG current change (%, negative = inhibition) at 1uM": "%"}, "values": [{"molecule": "Cc1cc(C)n2nc(C(=O)Nc3ccc4c(c3)OCO4)cc2n1", "hERG current change (%, negative = inhibition) at 1uM": -0.546}, {"molecule": "O=C1CCCC/C1=C/NCc1ccc(F)cc1", "hERG current change (%, negative = inhibition) at 1uM": 3.95}, {"molecule": "CCCOc1ccc(CCC(=O)N/N=C/c2ccc([N+](=O)[O-])o2)cc1", "hERG current change (%, negative = inhibition) at 1uM": 12.5}, {"molecule": "Cc1ccc(C)c(N(C(=O)c2csnn2)C(C(=O)NC2CCCCC2)c2cccnc2)c1", "note": "(stereo not shown)", "hERG current change (%, negative = inhibition) at 1uM": 16.6}, {"molecule": "O=C(NC1(C(F)(F)F)NC(=O)N(Cc2cccnc2)C1=O)c1cccs1", "note": "(stereo not shown)", "hERG current change (%, negative = inhibition) at 1uM": 5.09}, {"molecule": "Nc1nc(N)c2sc3nc(C(F)(F)F)cc(C(F)(F)F)c3c2n1", "hERG current change (%, negative = inhibition) at 1uM": -5.04}, {"molecule": "CCc1nnc(NC(=O)C2(C)COC(c3ccccc3)OC2)s1", "note": "(stereo not shown)", "hERG current change (%, negative = inhibition) at 1uM": 11.6}, {"molecule": "Cc1ccc(C2=NN(C(=O)CCCC(=O)O)C(c3ccc4c(c3)OCO4)C2)cc1", "note": "(stereo not shown)", "hERG current change (%, negative = inhibition) at 1uM": 15}, {"molecule": "CCn1c(CN2CCOCC2)nnc1SCC(=O)Nc1ccccc1C", "hERG current change (%, negative = inhibition) at 1uM": 20.9}, {"molecule": "O=C(COC(=O)C1CCC1)Nc1cccc(S(=O)(=O)N2CCOCC2)c1", "hERG current change (%, negative = inhibition) at 1uM": 12}, {"molecule": "CCCN1CCC(NC(=S)Nc2ccc([N+](=O)[O-])cc2)CC1", "hERG current change (%, negative = inhibition) at 1uM": -10.1}, {"molecule": "CC(=O)N1c2ccc(S(=O)(=O)N3CCC(C(=O)N4CCN(c5ccccc5F)CC4)CC3)cc2CC1C", "note": "(stereo not shown)", "hERG current change (%, negative = inhibition) at 1uM": -24.6}, {"molecule": "CCn1c(NCc2ccc(OC)cc2)nc2ccccc21", "hERG current change (%, negative = inhibition) at 1uM": 0.0776}, {"molecule": "CCOC(=O)c1c(NC(=O)C2COc3ccccc3O2)sc2c1CC(C)(C)NC2(C)C", "note": "(stereo not shown)", "hERG current change (%, negative = inhibition) at 1uM": 2.7}, {"molecule": "CCOc1cc(NC(=S)NCC2CCCO2)c(OCC)cc1NC(=O)c1ccc(F)cc1", "note": "(stereo not shown)", "hERG current change (%, negative = inhibition) at 1uM": 5.63}, {"molecule": "COC(=O)C1=C(C)N=C2SCCC(=O)N2C1/C=C/c1ccccc1", "note": "(stereo not shown)", "hERG current change (%, negative = inhibition) at 1uM": -17.1}, {"molecule": "O=C(Nc1ccc(F)cc1)N1CCCCCC1", "hERG current change (%, negative = inhibition) at 1uM": 11.5}, {"molecule": "c1ccc2nc(-c3ccc(-n4ccnc4)cc3)ccc2c1", "hERG current change (%, negative = inhibition) at 1uM": 7.84}, {"molecule": "CCn1nnnc1SCC(=O)Nc1ccc(OCc2ccccc2)cc1", "hERG current change (%, negative = inhibition) at 1uM": -7.91}, {"molecule": "Cc1[nH]c2c(Cl)cccc2c1CCN", "hERG current change (%, negative = inhibition) at 1uM": 5.16}, {"molecule": "COc1ccc(CN2CCNC(=O)C2CC(=O)NC2CCCC2)c(OC)c1", "note": "(stereo not shown)", "hERG current change (%, negative = inhibition) at 1uM": 7.22}, {"molecule": "Nc1nonc1C(=O)NCCNCc1ccccc1", "hERG current change (%, negative = inhibition) at 1uM": 8.93}, {"molecule": "COCCNC(=O)Cc1cn(C)c2ccccc12", "hERG current change (%, negative = inhibition) at 1uM": 5.72}, {"molecule": "O=C(O)Cc1ccc(C(=O)c2ccccc2)s1", "hERG current change (%, negative = inhibition) at 1uM": 12.9}, {"molecule": "Cc1ccc(NC(=O)CCC(=O)N/N=C/c2cccs2)cc1", "hERG current change (%, negative = inhibition) at 1uM": 6.76}, {"molecule": "CCOc1ccc(/C(O)=C2/C(=O)C(=O)N(CCCN3CCOCC3)C2c2ccc(F)cc2)cc1C", "note": "(stereo not shown)", "hERG current change (%, negative = inhibition) at 1uM": 16.5}, {"molecule": "COc1ccnc(N=CNOCc2cccc(Cl)c2Cl)c1C#N", "hERG current change (%, negative = inhibition) at 1uM": -4.58}, {"molecule": "COc1ccc(-n2c(C)cc(C(=O)COc3ccc(-n4cnnn4)cc3)c2C)cc1", "hERG current change (%, negative = inhibition) at 1uM": 6.98}, {"molecule": "O=C1NCCc2cc3c(cc21)OCO3", "hERG current change (%, negative = inhibition) at 1uM": 5.09}, {"molecule": "O=C(O)c1ccc(N2C(=O)CC(SC(=NCc3ccc4c(c3)OCO4)Nc3ccccc3)C2=O)cc1", "note": "(stereo not shown)", "hERG current change (%, negative = inhibition) at 1uM": 17.4}, {"molecule": "O=C(OCC(=O)N1CCCC1)c1ccc(Cl)nc1", "hERG current change (%, negative = inhibition) at 1uM": 9.58}, {"molecule": "COc1ccc(NC(=O)CCNS(=O)(=O)c2cc(Br)cnc2N)c(OC)c1", "hERG current change (%, negative = inhibition) at 1uM": 12.3}, {"molecule": "CC(=O)c1cccc(OCC(O)CN2CCN(C(=O)c3ccco3)CC2)c1", "note": "(stereo not shown)", "hERG current change (%, negative = inhibition) at 1uM": -5.4}, {"molecule": "CCOc1cccc(C(=O)Nc2nnc(-c3cccs3)s2)c1", "hERG current change (%, negative = inhibition) at 1uM": -0.832}, {"molecule": "CCCNC(=O)CN(Cc1ccco1)S(=O)(=O)c1ccc(OCC)cc1", "hERG current change (%, negative = inhibition) at 1uM": 3.87}, {"molecule": "CCCN(C(=O)c1cc(S(=O)(=O)N(C)c2ccc(OCC)cc2)ccc1C)C1CCS(=O)(=O)C1", "note": "(stereo not shown)", "hERG current change (%, negative = inhibition) at 1uM": 7.21}, {"molecule": "COc1ccc(/C=C/C2=NC(=C\\N(C)C)/C(=O)O2)cc1", "hERG current change (%, negative = inhibition) at 1uM": -8.43}, {"molecule": "CC1CCCN(S(=O)(=O)c2ccc(Br)s2)C1", "note": "(stereo not shown)", "hERG current change (%, negative = inhibition) at 1uM": 2.18}, {"molecule": "O=C(C1CC(=O)N(C2CCCC2)C1)N1CCN(c2ccc(F)cc2)CC1", "note": "(stereo not shown)", "hERG current change (%, negative = inhibition) at 1uM": 6.46}, {"molecule": "O=C(Nc1ccc2c(c1)OCCO2)c1ccc(Cl)c(S(=O)(=O)N2CCOCC2)c1", "hERG current change (%, negative = inhibition) at 1uM": -0.604}, {"molecule": "CCC/C=C(\\CCC)C(NS(=O)(=O)c1ccc(C(F)(F)F)cc1)c1ccccc1", "note": "(stereo not shown)", "hERG current change (%, negative = inhibition) at 1uM": 16}, {"molecule": "CCn1c(=O)c(NC(=O)c2ccccc2)c2n(c1=S)CCCCC2", "hERG current change (%, negative = inhibition) at 1uM": 11}, {"molecule": "CCCN(CCC)C(=O)C1CCCN1S(=O)(=O)c1cccc2nsnc12", "note": "(stereo not shown)", "hERG current change (%, negative = inhibition) at 1uM": 15.2}, {"molecule": "COc1ccc(NC(=O)CC#N)cc1OC", "hERG current change (%, negative = inhibition) at 1uM": 10.1}, {"molecule": "CCOC(=O)Cc1csc(NC(=O)C(C)Oc2ccc3c(C)cc(=O)oc3c2)n1", "note": "(stereo not shown)", "hERG current change (%, negative = inhibition) at 1uM": 11.5}, {"molecule": "CC1(C)NC(=O)N(CCCOc2ccccc2Br)C1=O", "hERG current change (%, negative = inhibition) at 1uM": 8.49}, {"molecule": "COc1ccccc1NC(=O)c1ccc(CSc2ncccn2)cc1", "hERG current change (%, negative = inhibition) at 1uM": 18.1}, {"molecule": "Cc1ccccc1OCc1nnc(SCC(=O)Nc2ccc3nc(SCC(=O)Nc4ccccc4)sc3c2)n1C", "hERG current change (%, negative = inhibition) at 1uM": 9.17}, {"molecule": "C=CCNC(=S)NNc1nc2c(c(=O)[nH]1)C1(CCCCC1)Cc1ccccc1-2", "hERG current change (%, negative = inhibition) at 1uM": 10.8}, {"molecule": "CC(NC(=O)C1(C)CC1(Br)Br)C(C)(C)C", "note": "(stereo not shown)", "hERG current change (%, negative = inhibition) at 1uM": 3.68}, {"molecule": "O=c1[nH]n2c(=O)c3c([nH]c2c1N=Nc1cccc(Cl)c1)CCCC3", "hERG current change (%, negative = inhibition) at 1uM": 10.3}, {"molecule": "Cc1cccc(C(=O)Nc2ccc(C(=O)N/N=C/c3ccc4c(c3)OCO4)cc2)c1", "hERG current change (%, negative = inhibition) at 1uM": 12.1}, {"molecule": "CCCCOc1ccccc1C(=O)NCCCCCC(=O)O", "hERG current change (%, negative = inhibition) at 1uM": 10.8}, {"molecule": "Cc1ccc(NC(=S)NC(C)(C)C)c([N+](=O)[O-])c1", "hERG current change (%, negative = inhibition) at 1uM": 8.47}, {"molecule": "O=C(NCCc1c[nH]c2ccccc12)C(=O)NCC1OCCN1S(=O)(=O)c1ccc(Cl)cc1", "note": "(stereo not shown)", "hERG current change (%, negative = inhibition) at 1uM": 3.74}, {"molecule": "N#C/C(=C\\c1ccc(OC(=O)c2cccs2)cc1)c1nc2ccccc2[nH]1", "hERG current change (%, negative = inhibition) at 1uM": 15}, {"molecule": "O=C(Nc1ccccc1C(=O)O)c1ccc2ccccc2n1", "hERG current change (%, negative = inhibition) at 1uM": 15.1}, {"molecule": "CCOc1ccc(/C=C/C(=O)NCc2ccccc2)cc1", "hERG current change (%, negative = inhibition) at 1uM": 1.74}]}]}
